Data: PMC6451091
This is one part of the list. For part of these data: At the low end of the ranking the order means little. For part of these data: The protein was read in a cell extract, so binding may be indirect.

Each sequence was assayed against PU.1 (IVT) (UniProt P17947) (assay: protein-binding microarray (PBM)). Conditions: 20 mM HEPES pH 7.9, 100 mM NaCl, 1 mM DTT, 0.2 mg/mL BSA, 0.02% Triton X-100, 2% milk, 0.4 mg/mL salmon testes DNA; 1 h; temperature not stated; high values mean tight binding; double strand, one strand shown; sequences stand for … in GCCTAGCAC…GTGCTAGGTCTTGATTCGCTTGACGCTGCTG.
Work on AAAAGAGGGAAGTGACATTC yielded a binding signal of 5.89 z-score. With GTAAAGAGGAAGTGCCCTAG the binding signal was 7.1 z-score. Sequence TGGAAAGGGAAGTGACTCTC has a binding signal of 4.88 z-score. GAAATGGGGAAGTCCCTGTT showed a binding signal of 6.88 z-score. Sequence AGGATGAGGAAGTGTGTGAG has a binding signal of 5.44 z-score. With GATAAGAGGATGTCCTCTGT the binding signal was 1.32 z-score. In the case of GTATTCAGGAACTACTGTGC, the binding signal is reported as 2.13 z-score. In the case of CATAAAGGGAAGTGGATGCT, the binding signal is reported as 4.56 z-score. For CCTTAGAGGAAGTGGCATTT, the binding signal was 4.27 z-score. For AGAGACGGGAAGTGAGACAA, the binding signal was 2.56 z-score. Sequence GAAAAGGGGAAGTGCTGGGG has a binding signal of 7.77 z-score. GTAAAAGGGAAGTGCTACAG was tested, and the binding signal was 5.11 z-score. CTGGAAAGGAAGTGCCCCCA showed a binding signal of 1.9 z-score. GAAATGAGGAAGTGTAAACA was tested, and the binding signal was 7.49 z-score. TTTTTGAGGAAGTGAATTAT showed a binding signal of 7.02 z-score. With AGAAAGGGGAAGTCAATCTG the binding signal was 7.41 z-score. TGAATGAGGAACTGAAAAAT gave a binding signal of 5.29 z-score. TATTTGAGGAAGTGTGAGAA gave a binding signal of 5.91 z-score. In the case of CGAAAGGGGAAGTGCTGAAC, the binding signal is reported as 7.16 z-score. Work on AAAAAAAGGAAGTGGTAGCA yielded a binding signal of 6.75 z-score. In the case of GAAAACAGGAAGTGTTGGTG, the binding signal is reported as 7.78 z-score. AACAAAAGGAACTGGCTAGA showed a binding signal of 0.871 z-score. Work on TCAAAGGGGAAGTGAGGCCA yielded a binding signal of 5.61 z-score. TGAAAGAGGAAGTGTGTTGA gave a binding signal of 7.3 z-score. With AGAAAGGGGAAGTGACTGCT the binding signal was 8.18 z-score. Work on GAAAAGGGGAAATGGCTTCA yielded a binding signal of 5.44 z-score. In the case of AAGAAAAGGAACTGGCTAGA, the binding signal is reported as 1.87 z-score. With AAAAAAAGCAACTGGCTAGA the binding signal was -0.443 z-score. Work on AAATAGAGGAAGTGTTCAGT yielded a binding signal of 7.1 z-score. AGGAAAAGGAAGTGAGTCAC was tested, and the binding signal was 4.13 z-score. TTTTTGAGGAAGTGATAAAA was tested, and the binding signal was 6.89 z-score. With AAAGTAAGGAAGTGATAAAG the binding signal was 2.7 z-score. Work on TGAAAGAGGAAGTGCAACCT yielded a binding signal of 7.49 z-score. Work on TTGAGGAGGAAGTGCATGTA yielded a binding signal of 4.35 z-score. Work on CAGAAGAGGAACTGAGCCAC yielded a binding signal of 3.69 z-score. AAAAAAAGGAAGTGAAAAAT showed a binding signal of 7.11 z-score. With AATAAAGGGAAGTGACTGCT the binding signal was 5.43 z-score. For GGGAGGAGGAAGTGCAGGGG, the binding signal was 4.11 z-score. AGAAAGAGGAAGTGTAAAAA gave a binding signal of 8.57 z-score. CAAAAAGGGAAGTGGATGAT was tested, and the binding signal was 6.73 z-score.

Each sequence was assayed against PU.1 (endogenous, THP-1 nuclear extract) (UniProt P17947) (assay: nuclear extract protein-binding microarray (nextPBM)). Conditions: 20 mM HEPES pH 7.9, 100 mM NaCl, 1 mM DTT, 0.2 mg/mL BSA, 0.02% Triton X-100, 2% milk, 0.4 mg/mL salmon testes DNA; 1 h; temperature not stated; high values mean tight binding; double strand, one strand shown; sequences stand for … in GCCTAGCAC…GTGCTAGGTCTTGATTCGCTTGACGCTGCTG.
Sequence AAAAGAGGGAAGTGACATTC has a binding signal of 6.21 z-score. In the case of GTAAAGAGGAAGTGCCCTAG, the binding signal is reported as 6.69 z-score. Work on TGGAAAGGGAAGTGACTCTC yielded a binding signal of 5.11 z-score. For GAAATGGGGAAGTCCCTGTT, the binding signal was 6.72 z-score. Work on AGGATGAGGAAGTGTGTGAG yielded a binding signal of 5.81 z-score. GATAAGAGGATGTCCTCTGT gave a binding signal of 1.16 z-score. Sequence GTATTCAGGAACTACTGTGC has a binding signal of 2.47 z-score. Sequence CATAAAGGGAAGTGGATGCT has a binding signal of 5.06 z-score. CCTTAGAGGAAGTGGCATTT was tested, and the binding signal was 4.56 z-score. AGAGACGGGAAGTGAGACAA gave a binding signal of 2.56 z-score. Work on GAAAAGGGGAAGTGCTGGGG yielded a binding signal of 7.22 z-score. Work on GTAAAAGGGAAGTGCTACAG yielded a binding signal of 5.9 z-score. Work on CTGGAAAGGAAGTGCCCCCA yielded a binding signal of 1.98 z-score. In the case of GAAATGAGGAAGTGTAAACA, the binding signal is reported as 7.1 z-score. TTTTTGAGGAAGTGAATTAT gave a binding signal of 6.78 z-score. AGAAAGGGGAAGTCAATCTG gave a binding signal of 6.97 z-score. For TGAATGAGGAACTGAAAAAT, the binding signal was 5.55 z-score. With TATTTGAGGAAGTGTGAGAA the binding signal was 6.14 z-score. CGAAAGGGGAAGTGCTGAAC was tested, and the binding signal was 7.11 z-score. AAAAAAAGGAAGTGGTAGCA was tested, and the binding signal was 6.46 z-score. With GAAAACAGGAAGTGTTGGTG the binding signal was 7.27 z-score. AACAAAAGGAACTGGCTAGA gave a binding signal of 1.39 z-score. In the case of TCAAAGGGGAAGTGAGGCCA, the binding signal is reported as 6.06 z-score. With TGAAAGAGGAAGTGTGTTGA the binding signal was 7.24 z-score. Sequence AGAAAGGGGAAGTGACTGCT has a binding signal of 7.35 z-score. Sequence GAAAAGGGGAAATGGCTTCA has a binding signal of 5.74 z-score. Work on AAGAAAAGGAACTGGCTAGA yielded a binding signal of 2 z-score. AAAAAAAGCAACTGGCTAGA was tested, and the binding signal was -0.0508 z-score. With AAATAGAGGAAGTGTTCAGT the binding signal was 6.85 z-score. Work on AGGAAAAGGAAGTGAGTCAC yielded a binding signal of 3.91 z-score. In the case of TTTTTGAGGAAGTGATAAAA, the binding signal is reported as 6.54 z-score. With AAAGTAAGGAAGTGATAAAG the binding signal was 2.69 z-score. TGAAAGAGGAAGTGCAACCT was tested, and the binding signal was 7.43 z-score. TTGAGGAGGAAGTGCATGTA gave a binding signal of 4.26 z-score. Sequence CAGAAGAGGAACTGAGCCAC has a binding signal of 4.52 z-score. Sequence AAAAAAAGGAAGTGAAAAAT has a binding signal of 6.46 z-score. With AATAAAGGGAAGTGACTGCT the binding signal was 6.15 z-score. GGGAGGAGGAAGTGCAGGGG gave a binding signal of 4.32 z-score. AGAAAGAGGAAGTGTAAAAA was tested, and the binding signal was 7.48 z-score. CAAAAAGGGAAGTGGATGAT gave a binding signal of 6.61 z-score.

These sequences were tested against T1, FLI1 (endogenous, THP-1 nuclear extract) (UniProt Q01543) in the same assay as above. Conditions: 20 mM HEPES pH 7.9, 100 mM NaCl, 1 mM DTT, 0.2 mg/mL BSA, 0.02% Triton X-100, 2% milk, 0.4 mg/mL salmon testes DNA; 1 h; temperature not stated; high values mean tight binding; double strand, one strand shown; sequences stand for … in GCCTAGCAC…GTGCTAGGTCTTGATTCGCTTGACGCTGCTG.
T1 sequence: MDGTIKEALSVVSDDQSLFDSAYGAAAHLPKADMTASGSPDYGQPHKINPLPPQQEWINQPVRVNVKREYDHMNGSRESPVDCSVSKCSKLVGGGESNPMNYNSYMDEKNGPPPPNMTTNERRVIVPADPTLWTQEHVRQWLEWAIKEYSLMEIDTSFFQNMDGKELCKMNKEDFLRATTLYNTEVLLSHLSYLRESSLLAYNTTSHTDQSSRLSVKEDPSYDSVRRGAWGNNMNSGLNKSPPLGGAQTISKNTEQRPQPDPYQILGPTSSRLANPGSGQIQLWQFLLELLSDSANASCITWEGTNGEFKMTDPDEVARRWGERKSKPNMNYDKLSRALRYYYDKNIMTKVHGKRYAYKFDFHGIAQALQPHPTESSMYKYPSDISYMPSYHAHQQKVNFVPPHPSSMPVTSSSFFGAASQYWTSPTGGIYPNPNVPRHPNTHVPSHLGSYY
In the case of AAAAGAGGGAAGTGACATTC, the binding signal is reported as 2.08 z-score. In the case of GTAAAGAGGAAGTGCCCTAG, the binding signal is reported as 3.59 z-score. TGGAAAGGGAAGTGACTCTC was tested, and the binding signal was 2.01 z-score. GAAATGGGGAAGTCCCTGTT gave a binding signal of 2.53 z-score. With AGGATGAGGAAGTGTGTGAG the binding signal was 2.53 z-score. For GATAAGAGGATGTCCTCTGT, the binding signal was 1.17 z-score. GTATTCAGGAACTACTGTGC showed a binding signal of 1.22 z-score. In the case of CATAAAGGGAAGTGGATGCT, the binding signal is reported as 2.28 z-score. CCTTAGAGGAAGTGGCATTT was tested, and the binding signal was 2.73 z-score. AGAGACGGGAAGTGAGACAA showed a binding signal of 2.29 z-score. Sequence GAAAAGGGGAAGTGCTGGGG has a binding signal of 3.85 z-score. With GTAAAAGGGAAGTGCTACAG the binding signal was 2.51 z-score. CTGGAAAGGAAGTGCCCCCA showed a binding signal of 2.47 z-score. GAAATGAGGAAGTGTAAACA was tested, and the binding signal was 3.19 z-score. Work on TTTTTGAGGAAGTGAATTAT yielded a binding signal of 3.19 z-score. AGAAAGGGGAAGTCAATCTG was tested, and the binding signal was 3.37 z-score. For TGAATGAGGAACTGAAAAAT, the binding signal was 1.92 z-score. TATTTGAGGAAGTGTGAGAA showed a binding signal of 2.47 z-score. With CGAAAGGGGAAGTGCTGAAC the binding signal was 3.17 z-score. AAAAAAAGGAAGTGGTAGCA gave a binding signal of 3.17 z-score. For GAAAACAGGAAGTGTTGGTG, the binding signal was 5.11 z-score. AACAAAAGGAACTGGCTAGA was tested, and the binding signal was 0.798 z-score. Sequence TCAAAGGGGAAGTGAGGCCA has a binding signal of 2.85 z-score. In the case of TGAAAGAGGAAGTGTGTTGA, the binding signal is reported as 3.79 z-score. For AGAAAGGGGAAGTGACTGCT, the binding signal was 3.5 z-score. With GAAAAGGGGAAATGGCTTCA the binding signal was 2.4 z-score. For AAGAAAAGGAACTGGCTAGA, the binding signal was 0.918 z-score. Sequence AAAAAAAGCAACTGGCTAGA has a binding signal of -0.634 z-score. AAATAGAGGAAGTGTTCAGT gave a binding signal of 3.47 z-score. In the case of AGGAAAAGGAAGTGAGTCAC, the binding signal is reported as 3.01 z-score. In the case of TTTTTGAGGAAGTGATAAAA, the binding signal is reported as 3.08 z-score. Sequence AAAGTAAGGAAGTGATAAAG has a binding signal of 1.81 z-score. TGAAAGAGGAAGTGCAACCT was tested, and the binding signal was 4.07 z-score. With TTGAGGAGGAAGTGCATGTA the binding signal was 2.73 z-score. CAGAAGAGGAACTGAGCCAC showed a binding signal of 1.5 z-score. In the case of AAAAAAAGGAAGTGAAAAAT, the binding signal is reported as 3.13 z-score. AATAAAGGGAAGTGACTGCT gave a binding signal of 2.14 z-score. Sequence GGGAGGAGGAAGTGCAGGGG has a binding signal of 2.42 z-score. Work on AGAAAGAGGAAGTGTAAAAA yielded a binding signal of 4.43 z-score. Sequence CAAAAAGGGAAGTGGATGAT has a binding signal of 3.38 z-score.
